Test results published in PubChem BioAssay AID624417 (National Center for Advancing Translational Sciences (NCATS), 2012).
The whole screen tested about 410,000 compounds, of which about 6,400 (1.6%) were called active. The inconclusive results got no clear call from the source; some entries with a clear call stand among them for comparison. Calls come from the whole dose curve; as a rule, active = well fitted inhibition curve with a large enough effect; inconclusive = small, poorly fitted or top-dose-only effect; inactive = no such curve, though single readings can be large or run the other way. No potency is given beside an inconclusive call; the fits are too rough.

Target: Glucagon-like peptide 1 receptor (Homo sapiens) (UniProt P43220)
UniProt P43220, sequence (P43220 whole entry, looked up): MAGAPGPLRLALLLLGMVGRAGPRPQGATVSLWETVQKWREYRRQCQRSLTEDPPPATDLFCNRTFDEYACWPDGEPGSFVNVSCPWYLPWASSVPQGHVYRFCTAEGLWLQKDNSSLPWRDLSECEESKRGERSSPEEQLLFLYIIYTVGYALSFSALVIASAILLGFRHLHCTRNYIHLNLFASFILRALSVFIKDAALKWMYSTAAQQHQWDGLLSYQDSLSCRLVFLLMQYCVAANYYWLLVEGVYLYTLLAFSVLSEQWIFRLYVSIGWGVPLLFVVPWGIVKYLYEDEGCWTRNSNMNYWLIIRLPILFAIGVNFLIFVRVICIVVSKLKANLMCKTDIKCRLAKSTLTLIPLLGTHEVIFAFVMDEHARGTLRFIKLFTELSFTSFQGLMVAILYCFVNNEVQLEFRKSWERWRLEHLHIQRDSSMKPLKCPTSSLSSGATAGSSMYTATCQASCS
Assay: qHTS of GLP-1 Receptor Inverse Agonists (Inhibition Mode); note: nearly all actives have a fitted effect of over 55% in size
Conditions: HEK293 GLP-1R CRE-luciferase, luminescence, 24 h, GLP-1R form is constitutively active; activity change, negative = inhibition: at 38.3 µM (top of the series) unless noted
Method in brief: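 Cells are plated, allowed 12 hours at 37 deg C, then treated with compounds for 24 hr before luciferase detection reagent is added and luminescence is read after 12 min at room temperature. The HEK293 line carries constitutively active GLP-1R with a cAMP-responsive reporter.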
% is set by controls: 0 for no effect and ±100 for the full control effect; potency is the fitted concentration of half-maximal effect; tags give direction and shape of the fitted curve.

Row | Compound | Potency | activity change, negative = inhibition
1 | CC(=O)Nc1ccc(CN(C)CC2CCCN(CCc3cccc(C(F)(F)F)c3)C2)cc1 (centres undefined) | inconclusive [inhibitor, partial curve, poor fit] | 
2 | O=C(Cc1cccc2ccccc12)NNC(=O)Nc1ccc(Cl)cc1 | inconclusive [inhibitor, partial curve, poor fit] | 
3 | CC(=O)OCC1(C)CN(c2ccccc2)N(C(C)=O)C1=O (centres undefined) | inconclusive [inhibitor, partial curve, poor fit] | 
4 | Cc1ccc(OCC(=O)N2CC3(C)CC2CC(C)(C)C3)cc1 (centres undefined) | active: 10 µM | 
5 | O=C(Nc1cccc(O)c1)c1cccc(S(=O)(=O)N2CCCCCC2)c1 | inconclusive [inhibitor, partial curve] | 
6 | Cc1ccc(Nc2cc(C(=O)NCc3cccs3)c3ccccc3n2)c(C)c1 | active: 2 µM | 
7 | COc1ccc(O)c(-c2c(-c3ccc(Cl)cc3)n[nH]c2C)c1 | active: 10 µM | 
8 | C[C@@H]1CCCCO[C@H](CN(C)Cc2ccc(Cl)c(Cl)c2)[C@H](C)CN([C@@H](C)CO)C(=O)c2cc(NC(=O)Nc3ccc(F)cc3)ccc2O1 | inconclusive [inhibitor, full curve, poor fit] | 
9 | Cc1ccc(S(=O)(=O)Nc2cc(C(F)(F)F)ccc2N2CCOCC2)cc1C | inconclusive [inhibitor, partial curve, poor fit] | 
10 | O=S(=O)(Nc1ccc2c(c1)OCO2)c1ccc(Cl)cc1F |  | inactive: -27.8%
11 | Cc1ccc(C(=O)NC(=S)N2CCN(c3cc(C)ccc3C)CC2)cc1 | inconclusive [inhibitor, partial curve, poor fit] | 
12 | COc1cccc(C(=O)CC2(O)C(=O)Nc3ccc(Cl)cc32)c1 (centres undefined) |  | inactive: -5.25%
13 | CC(C)(C)c1ccc(CC(=O)N2CCC2(C)C(=O)NS(=O)(=O)c2cccc(F)c2)cc1 (centres undefined) | inconclusive [inhibitor, partial curve] | 
14 | O=C(NC(=S)Nc1ccc([N+](=O)[O-])cc1O)C1CCCCC1 | inconclusive [inhibitor, single point] | 
15 | COc1cccc(CC2(CO)CCN(Cc3cn(C)nc3C)CC2)c1 |  | inactive: -15.3%
16 | NC(=S)N/N=C/c1ccc(-c2ccccc2)o1 | inconclusive [inhibitor, partial curve, poor fit] | 
17 | S=C(NCCCN1CCOCC1)Nc1ccc(Cl)c(Cl)c1 | inconclusive [inhibitor, partial curve] | 
18 | CN(C)CC[C@@H](c1ccc(Br)cc1)c1ccccn1 | inconclusive [inhibitor, single point] | 
19 | Cc1sc2ncnc(NS(=O)(=O)c3ccc(Cl)cc3)c2c1C | inconclusive [inhibitor, partial curve, poor fit] | 
20 | O=C(CN1CCCC1)Nc1ccc2c(c1)CCC2 | inconclusive [inhibitor, single point] | 
21 | CC1=CC2=NC(=O)/C(=C\c3cccn3CCOc3cc(C)ccc3C)C(=N)N2O1 | inconclusive [inhibitor, partial curve, poor fit] | 
22 | CC(=O)c1c(C)oc2c1C(=O)c1ccccc1C2=O |  | inactive: 4.06%

Row | Compound | Potency | activity change, negative = inhibition
23 | CCCOc1ccc(CN(C(=O)c2cc(=O)c3ccc(C)cc3o2)C2CCS(=O)(=O)C2)cc1 (centres undefined) |  | inactive: 27.2%
24 | CCOc1ccccc1CN1CCc2nc(N3CCN(c4ccccc4F)CC3)ncc2C1 | active: 10 µM | 
25 | CCC(=O)Nc1ccc(N2CCN(C(=O)c3ccccc3C)CC2)cc1 |  | inactive: -11.6%
26 | CCCC[C@H]1COCCS(=O)(=O)N1Cc1ccc(Br)cc1 | inconclusive [inhibitor, partial curve, poor fit] | 
27 | Cc1ccccc1NC(=S)Nc1cccc2cnccc12 |  | inactive: 9.5%
28 | Cc1c(C(=O)N(Cc2cccc(Br)c2)C2CCS(=O)(=O)C2)oc2ccccc12 (centres undefined) | inconclusive [inhibitor, partial curve, poor fit] | 
29 | O=C(NCCC1=CCCCC1)c1cc(S(=O)(=O)N2CCOCC2)ccc1Cl | inconclusive [inhibitor, partial curve, poor fit] | 
30 | CCOC(=O)c1nn(-c2ccc(F)cc2)c2nc(-c3ccccc3)c(C#N)c(=O)n12 |  | inactive: 1.1%
31 | COc1ccc(NC(=O)CN(C)CC(=O)Nc2ccc(Cl)cc2F)cc1 | inconclusive [inhibitor, single point] | 
32 | COc1ccc(C(OC(=O)c2ccco2)C(=O)NC(C)(C)C)cc1OC (centres undefined) |  | inactive: 7.82%
33 | O=C(Nc1ccncc1)c1ccc(NS(=O)(=O)c2cccc(F)c2)cc1 |  | inactive: 0%
34 | COc1ccc(CCNC(=O)c2c(O)c3cc(OC)c(OC)cc3[nH]c2=O)cc1OC |  | inactive: -0.0702%
35 | COc1cc(Cl)c(C)cc1NC(=O)CN1C(=O)C2CC=CCC2C1=O (centres undefined) | inconclusive [inhibitor, single point] | 
36 | CCN(CC)CCCNC(=O)c1ccc2nc(N3CCCCC3)sc2c1 | inconclusive [inhibitor, single point] | 
37 | CCOc1ccc(NC(=S)NC(=O)c2c(Br)cnn2C)c([N+](=O)[O-])c1 |  | inactive: -3.64%
38 | O=C1c2ccccc2-c2onc3ccc(NCCCn4ccnc4)c1c23 |  | inactive: -13.5%
39 | Cc1coc2c(O)cc3c(c12)OC1(N2CCCCC2)C(=O)NCCCC31 (centres undefined) | inconclusive [inhibitor, single point] | 
40 | CCC(C)(C)NC(=O)C(c1ccc(F)cc1)N(Cc1ccc(OC)cc1)C(=O)c1cnccn1 (centres undefined) |  | inactive: -7.69% [at 7.66 µM]
41 | COc1ccccc1/C=C/c1nc(S(=O)(=O)c2ccccc2)c(NCCN(C)C)o1 | inconclusive [inhibitor, single point] | 
42 | CC(C)CCN1CC(O)=C(c2nc3ccccc3[nH]2)C1=N |  | inactive: 6.45%
43 | Cc1[nH]c2ccccc2c1/C=N/Nc1nc(Nc2ccc(F)cc2)nc(N2CCOCC2)n1 | inconclusive [inhibitor, single point] | 
44 | O=c1oc2ccccc2n1Cc1ccccc1F | inconclusive [inhibitor, partial curve, poor fit] | 
